In patent US20150011394A1 (priority 2012, published 2015):

Assays:
Conditions in all cases: in vivo
[1] = tested on: Xanthomonas campestris pv. citri
[2] = tested on: Streptomyces scabies
Protocol: Trial Locations were Sahiwal, Faisalabad, and Lahore in Pakistan.
Potato tubers were treated once at the time of sowing. The tuber quantity (seed) was determined according to plot size and weighed out separately for each treatment. Then product quantity was calculated and measured according to weight of tuber for each treatment on the basis of dose rate per 100 kg tuber. The water volume was calibrated to give proper coverage. The product was mixed in the calibrated volume of water for each treatment separately. The tubers were spread on a plastic sheet, sprayed thoroughly, dried, turned to the other side and sprayed thoroughly again. It was ensured that every seed has been covered with the product. After drying the tubers were sown in the marked plots. Preferably medium sized Potato tubers were used for sowing. In order to ensure disease infestation, infected tubers having a disease incidence of about 10% Potato Tuber Bacterial Scab were used.
At harvesting, the percentage of disease of potatoes for each treatment was determined and the efficacy was calculated according to ABBOTT (% efficacy). 0% means an efficacy which corresponds to that of the control, while an efficacy of 100% means that no disease was observed.

[3] = tested on: Pseudomonas syringae pv. lachrymans
Source text: The cucumber plants were inoculated at BBCH14 stage (4th true leaf fully unfolded stage) on potted plants protected in preventative.

[4] = tested on: Pseudomonas syringae pv. lachrymans; remark: listed apart in the source
Source text: The cucumber plants were inoculated at BBCH13 stage (third true leaf fully unfolded stage) on potted plants protected in preventative.

[5] = tested on: Pseudomonas syringae pv. tomato

Compound | % efficacy (Abbott), incidence on leaves [1] [%] | Faisalabad Efficacy [% Abbott] [2] | Lahore Efficacy [% Abbott] [2] | Sahiwal Efficacy [% Abbott] [2] | % efficacy (Abbott), No. of lesions on 15 leaves [3] [%] | % efficacy (Abbott), severity on leaves [4] | % efficacy (Abbott), severity index [5] [%] | Disease severity index [5]
N#Cc1ccccc1NC(=O)c1snc(Cl)c1Cl [Isotianil, isotianil] | 37 | 86 % Abbott and 49 % Abbott and 57 % Abbott | 79 % Abbott and 76 % Abbott and 77 % Abbott | 100 % Abbott and 67 % Abbott | 78 | 81% and 91% | – | –
C=CCOC1=NS(=O)(=O)c2ccccc21 [PROBENAZOLE a.i., probenazole, reference compound] | – | – | – | – | – | 74% and 61% | – | –
OCC1=C[C@H](N[C@H]2C[C@H](CO)[C@@H](O[C@@H]3O[C@H](CO)[C@@H](O)[C@H](O)[C@H]3O)[C@H](O)[C@H]2O)[C@H](O)[C@@H](O)[C@@H]1O [Validamycin, reference compound] | – | 47 % Abbott | 65 % Abbott | 33 % Abbott | – | – | – | –
[Cl-].[Cu+2].[Cu+2].[OH-].[OH-].[OH-] [copper oxychloride] | – | – | – | – | – | – | 56.5 | 101.3

Where “and” joins values, the source holds several entries; their conditions need not be identical. Equal entries are not always repeated.
